Among all 240,000 compounds or so, about 20 (0.008%) were called active. Inconclusive results, whose numbers are uncertain, are shown with a selection of clear calls. The call rests on the fitted dose curve; in most records, active means well fitted inhibition curve with a large enough effect; inconclusive means small, poorly fitted or top-dose-only effect, or effect the other way; inactive means flat fitted curve, though single readings scatter. Potencies of inconclusive entries are left out as doubtful fits.
Biological target: Alpha-galactosidase A (Homo sapiens) (UniProt P06280)
Test: qHTS Assay for Inhibitors and Activators of Human alpha-Galactosidase From Spleen Homogenate;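 on activity change, negative = inhibition: 0% = enzyme with vehicle and -100% = no enzyme basal signal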
Settings: 4MU-alpha-Gal fluorescence, 40 min; activity change, negative = inhibition: at 80 µM (top of the series)
Method in brief: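 Inhibition or activation of alpha-galactosidase in human spleen homogenate is scored by 4-MU fluorescence after 40 min at 37C, pH 5.0, with 1 mM substrate. AC50s come from concentration-response fitted to the Hill equation.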
Potency means the concentration at half of the fitted maximal effect; tags describe the fitted curve by direction and shape.

UniProt P06280, sequence (P06280 whole entry, looked up): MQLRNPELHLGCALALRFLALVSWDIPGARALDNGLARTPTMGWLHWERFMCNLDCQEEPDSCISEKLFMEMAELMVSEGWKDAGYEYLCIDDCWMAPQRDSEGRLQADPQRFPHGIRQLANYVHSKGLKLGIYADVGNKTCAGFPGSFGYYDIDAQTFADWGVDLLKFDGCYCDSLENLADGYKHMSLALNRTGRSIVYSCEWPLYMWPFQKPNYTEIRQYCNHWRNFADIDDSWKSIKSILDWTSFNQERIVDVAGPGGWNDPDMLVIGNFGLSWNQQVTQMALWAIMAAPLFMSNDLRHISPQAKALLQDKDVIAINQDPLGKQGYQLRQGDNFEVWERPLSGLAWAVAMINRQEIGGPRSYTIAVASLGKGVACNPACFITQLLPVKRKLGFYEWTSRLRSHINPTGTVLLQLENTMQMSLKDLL

| SMILES | Potency | activity change, negative = inhibition |
| --- | --- | --- |
| CC(=O)Oc1cc2oc(=O)cc(C)c2cc1OC(C)=O | inconclusive [activator, partial curve] | – |
| O=c1c2ccccc2n(CC(O)CN2CCCCC2)c2ccccc12 (stereo unspecified) | inconclusive [activator, partial curve] | – |
| Cc1cc(C)c2c(n1)sc1c(O)cc(=O)[nH]c12 | inconclusive [inhibitor, partial curve] | – |
| Cc1cc(CN(C)C)c(O)c(C2(C)CCCCC2)c1 | inconclusive [inhibitor, single point] | – |
| Cc1cccn2c(=O)c3cc(C(N)=S)c(=N)n(CCCOC(C)C)c3nc12 | inconclusive [activator, single point] | – |
| O=C(Nc1ccccc1N1CCOCC1)C1Cc2ccccc2CN1C(=O)c1ccco1 (stereo unspecified) | inconclusive [inhibitor, partial curve] | – |
| Cc1onc(-c2c(F)cccc2Cl)c1C(=O)Nc1ccc(S(=O)(=O)Nc2ncccn2)cc1 | inconclusive [inhibitor, single point] | – |
| CC[C@H](NC(=O)[C@H](CCC(=O)O)NC(=O)[C@H](CCC(=O)O)NC(=O)[C@H](CC(=O)O[S+](=O)([O-])c1cccc2c(NCCN)cccc12)NC(=O)[C@H](CCC(=O)O)NC(=O)[C@H](CC(=O)O)NC(C)=O)C(=O)ON[C@@H](C)C(=O)N[C@@H](CO)C(=O)N[C@@H](CCCCNC(=O)c1ccc(N=Nc2ccc(N(C)C)cc2)cc1)C(N)=O | inactive | – |
| COc1ccc(CNc2ncnc3cc(Cl)ccc23)cc1 | inactive | – |
| COP(=O)(OC)c1nc(-c2cccc3ccccc23)oc1NCc1ccccc1 | inconclusive [activator, partial curve] | – |
| CCOc1cccc(C(=O)Nc2nnc(-c3ccco3)s2)c1 | inconclusive [inhibitor, single point] | – |
| CCN1C=CC(=C2C(=O)c3ccccc3C2=O)C=C1 | inconclusive [inhibitor, partial curve] | – |
| CCNc1ncc2nc(C)c(=O)n(CCOC)c2n1 | inconclusive [activator, partial curve] | – |
| O=[N+]([O-])c1ccc(O)c(/C=N/Nc2nc3ccccc3[nH]2)c1 | inactive | – |
| CCCc1cc(NCCCCO)n2c(nc3ccccc32)c1C#N | inconclusive [activator, partial curve] | – |
| OCCNc1c2ccccc2nc2ccccc12 | inconclusive [activator, partial curve] | – |
| N#Cc1ccc2ccn(CC(=O)NCc3ccccc3)c2c1 | inconclusive [inhibitor, partial curve] | – |
| NC(=NCc1ccc(Cl)cc1Cl)NC(=O)c1nc(Cl)c(N)nc1N | inconclusive [activator, partial curve] | – |
| Cc1c(Cc2ccccc2)c(=O)n2c([nH]c3ccccc32)c1C#N | inconclusive [activator, partial curve] | – |
| O=C(C1CC1c1ccccc1)N1CCN(c2cccc(Cl)c2)CC1 (stereo unspecified) | inactive | – |
| O=C(O)C1CCCN1 (stereo unspecified) | inactive | – |
| COc1ccc2ncc(OC(C)=O)cc2c1 | inconclusive [inhibitor, single point] | – |
| COc1ccc(C2C=C(c3cccs3)Nc3nc(CCCO)nn32)cc1 (stereo unspecified) | inconclusive [activator, single point] | – |
| O=C(O)CC/C(=C\c1cccc(NC(=O)c2ccccc2Cl)c1)c1nc2ccccc2s1 | inconclusive [activator, single point] | – |

| SMILES | Potency | activity change, negative = inhibition |
| --- | --- | --- |
| Brc1ccc(C2=CC(c3cccs3)n3ncnc3N2)cc1 (stereo unspecified) | inactive | – |
| COc1ccc(-c2nnc3n2N=C(c2ccccc2OC)CS3)c(OC)c1 | inactive | – |
| CCOC(=O)CNS(=O)(=O)c1ccc(F)cc1Br | inactive | – |
| N#Cc1cccn1-c1nccs1 | inconclusive [inhibitor, single point] | – |
| Cc1cccc2cc3c(NC(=O)c4ccccn4)nn(C)c3nc12 | inconclusive [activator, full curve] | – |
| N#Cc1c(N)n(CCCN2CCOCC2)c2nc3ccccc3nc12 | inconclusive [activator, partial curve] | – |
| O=C1/C(=C/c2ccccc2)N=C(N2CCOCC2)N1c1cccc(Cl)c1 | inconclusive [inhibitor, partial curve, poor fit] | – |
| CCOC(=O)c1cc2c(=O)n3ccccc3nc2n(CCCOC)c1=NC(C)=O | inconclusive [activator, full curve] | – |
| CCOC(=O)N1CCC(N2Cc3cccc(C(=O)NCc4ccccc4OC)c3C2=O)CC1 | inactive | – |
| O=c1c(CCc2ccccc2)nc2cnc(N3CCOCC3)nc2n1-c1ccccc1 | inactive | – |
| CN1c2ccccc2-c2nc3ccccc3n2C1c1ccccn1 (stereo unspecified) | inconclusive [activator, partial curve] | – |
| CCCCC(=O)NC(c1ccc(OC)c(OC)c1)c1c(O)ccc2ccccc12 (stereo unspecified) | inconclusive [activator, single point] | – |
| COc1ccc(N2CCN(C(=O)c3ccc(NS(=O)(=O)c4ccccc4)cc3)CC2)cc1 | inactive | – |
| O=C(NCc1ccccn1)c1coc(=O)c(Br)c1 | inconclusive [activator, partial curve] | – |
| COC(=O)c1cc(OC)c(OC)cc1NC(=O)Nc1ccc(OC)cc1OC | inconclusive [activator, full curve, poor fit] | – |
| COc1cccc(C(=O)Nc2cc(-c3cn4cccnc4n3)ccc2C)c1 | inconclusive [activator, partial curve] | – |
| CO[C@@H]1COC(=O)C/C=C\[C@H](C)COC(=O)[C@H](C)NC(=O)C/C=C\[C@H]1C | – | inactive: 9.3% [at 17.5 µM] |
| O=C(N/N=C/c1sc(N2CCOCC2)nc1-c1ccccc1)c1ccccc1Cl | inactive | – |
| Cc1ccc(S(=O)(=O)N(CC#N)CC#N)cc1 | inconclusive [inhibitor, full curve] | – |
| CC(OC(=O)c1nsc(Cl)c1Cl)C(=O)NCc1ccc2c(c1)OCO2 (stereo unspecified) | inactive | – |
| N#Cc1cnc(SCC(=O)c2ccccc2)nc1N | inactive | – |
| C=CC(C)(O)CC/C=C(\C)CCC=C(C)C (stereo unspecified) | inactive | – |
| CCS(=O)(=O)c1ccc(Sc2nncn2C)c([N+](=O)[O-])c1 | inactive | – |
| CN(C)c1ccc(/C=N/NC(=O)CCCO)cc1 | inconclusive [activator, single point] | – |

| SMILES | Potency | activity change, negative = inhibition |
| --- | --- | --- |
| CC1CC[C@]2(CO)CC[C@]3(C)C(=CCC4[C@@]5(C)CCC(O)C(C)(C)C5CC[C@@]43C)C2C1C (stereo partly specified) | inactive | – |
| COc1cccc(CNC(=O)CSc2ccc(-c3ccco3)nn2)c1 | inactive | – |
| O=C(CN1CCOCC1)Nc1nc2ccc(F)cc2s1 | inactive | – |
| CN1CCN(c2ncc3nc(-c4cccs4)c(=O)n(Cc4ccc(F)cc4)c3n2)CC1 | inconclusive [inhibitor, single point] | – |
| CCCOc1ccc(C2NC(=S)NC(C)=C2C(=O)c2ccccc2)cc1OC (stereo unspecified) | inactive | – |
| Cc1cc(N)c2ccccc2[n+]1CCCCCCCCCCCCCC[n+]1c(C)cc(N)c2ccccc21 | inconclusive [inhibitor, full curve, poor fit] | – |
| c1ccc(C2=NN(c3ccccc3)CC2)cc1 | inconclusive [activator, single point] | – |
| COC(=O)Cc1cc(=O)oc2c(C)c(O)ccc12 | inconclusive [activator, partial curve] | – |
| CN1CC=C2C(C#N)=C(N)C(C#N)(C#N)[C@H](c3cccc(Cl)c3)C2C1 (stereo partly specified) | inconclusive [activator, partial curve] | – |
| CCOC(=O)c1cc(C(=O)OCC)c2ccccn2c1=O | inconclusive [activator, partial curve] | – |
| Cc1ccc(S(=O)(=O)NC(C(=O)Oc2ccc3ccc(=O)oc3c2)c2ccccc2)cc1 (stereo unspecified) | inconclusive [activator, partial curve] | – |
| CC(=O)OC1=C(C#N)Cn2ccc3cccc1c32 | inconclusive [inhibitor, single point] | – |
| CN1CCc2c(sc3c2C(=O)NC(c2cccs2)N3)C1 (stereo unspecified) | inconclusive [activator, single point] | – |
| CCN1CCc2c(C#N)c(NCc3ccccc3)nc(NCCO)c2C1 | inconclusive [activator, partial curve] | – |
| O=c1oc2c(CN3CCOCC3)c(O)c(Cl)cc2c2c1CCCC2 | inconclusive [activator, single point] | – |
| N=c1c(C(=O)NC2CCCC2)cc2c(=O)n3ccccc3nc2n1C1CCCC1 | inconclusive [activator, single point] | – |
| Fc1ccccc1-n1cn[nH]c1=S | inactive | – |
| O=c1cccc2n1Cc1cc3ccccc3nc1-2 | inconclusive [activator, partial curve] | – |
| O=C(Nc1nccs1)c1ccc(COc2ccccc2Br)o1 | inactive | – |
| CC1(C)O[C@@H]2O[C@H]([C@H](O)CO/N=C3/[C@H]4O[C@@H]4[C@@H](O)[C@H]4[C@H]3CCn3c(=O)n(-c5ccccc5)c(=O)n34)[C@@H](O)[C@@H]2O1 | – | inactive: -10% [at 17.5 µM] |
| O=C(c1cc2c(s1)-c1ccccc1OC2)N1CCCC1 | inconclusive [activator, partial curve] | – |
| CN(C)CCC(=O)c1ccc2c(c1)OCO2 | inactive | – |
| C=CCNC(=S)NNC(=O)c1ccccc1 | inactive | – |

From PubChem BioAssay AID2107 (National Center for Advancing Translational Sciences (NCATS), 2009)
